Measurements: PubChem BioAssay AID1240 (Sanford-Burnham Center for Chemical Genomics, 2008)
Hit rate of the full screen: of about 50,000 compounds, about 800 (1.6%) showed an effect of 50% or more. The list shows a part of the results.

molecular target: Bcl-2-like protein 10 (Homo sapiens) (UniProt Q9HD36); test: Phenotype converters, Bcl-B/TR3 peptide binding displacement, primary biochemical FP (AID 1240); conditions: GST-Bcl-B / FITC-TR3 peptide fluorescence polarization; stronger effect = higher value; compound at 3.75 mg/L;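 further: 0% = Bcl-B with tracer peptide and DMSO and 100% = tracer peptide lacking Bcl-B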
UniProt Q9HD36, sequence (Q9HD36 whole entry, looked up): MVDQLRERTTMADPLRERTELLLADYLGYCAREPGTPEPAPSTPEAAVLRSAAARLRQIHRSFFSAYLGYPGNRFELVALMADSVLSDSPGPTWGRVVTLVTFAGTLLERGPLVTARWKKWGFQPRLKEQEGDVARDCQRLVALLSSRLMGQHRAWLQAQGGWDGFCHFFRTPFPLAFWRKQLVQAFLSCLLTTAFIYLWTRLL

SMILES | displacement
COc1cc(NC(=O)COc2cccc(C)c2)c(C(=O)O)cc1OC | 11.1%
C/C(=N\OC(=O)Nc1ccccc1)c1ccccn1 | -8.2%
OC(CNCC1(c2ccccc2)CCCC1)COc1ccccc1 (stereo unspecified) | -1.3%
C=CCNC(=O)c1ccc(-c2ccc(Cl)cc2Cl)o1 | 13.1%
CCCCNCCOc1cc(C)c(Cl)c(C)c1 | 2.6%
CC(C)NS(=O)(=O)c1ccc(Br)cc1 | -7.4%
O=C1NC(=O)N(c2ccc(Cl)cc2)C(=O)/C1=C/c1ccc(O)c(Br)c1 | -8.4%
CCOc1cc(/C=C2\SC(=S)N(CC(=O)OC)C2=O)ccc1O | 122%
Cc1ccc2nc(-c3ccc(NC(=O)c4ccc5c(c4)OCCO5)cc3)sc2c1 | 73.2%
Cc1ccc(NC(=S)NC(=O)c2sc3ccccc3c2Cl)cc1 | 6%
COc1cc(Br)cc(/C=N/NC(=O)COc2cccc(Cl)c2)c1O | 30.2%
COc1ccc(NC(=O)C(=O)NCCCN2CCOCC2)cc1 | -6.5%
CC1(C)COC(=O)/C1=N/Nc1ccc([N+](=O)[O-])cc1 | -0.2%
O=C(NNC(=O)c1ccc(Cl)c([N+](=O)[O-])c1)c1cccc(Br)c1 | -11.3%
CC(=O)c1c(C(C)=O)c(C)n(-c2ccccc2N)c1C | 1.8%
CCOc1ccccc1NC(=O)CSc1ccccn1 | -10.7%
COc1cc2ccccc2cc1C(=O)Nc1ccc(Cc2ccncc2)cc1 | -61.9%
O=[N+]([O-])c1cccc(-c2nnc(-c3cccc(F)c3)o2)c1 | 13.1%
COc1ccc(C2CC(C(F)(F)F)n3nc(C(=O)Nc4ccc(F)cc4F)c(Cl)c3N2)cc1OC (stereo unspecified) | -1.2%
COc1ccc(C2SCC(=O)N2c2c(C)n(C)n(-c3ccccc3)c2=O)cc1OC (stereo unspecified) | -10.3%
Cc1ccc2oc(-c3ccc(NC(=O)COc4ccccc4)cc3O)nc2c1 | -22%
Cc1ccc(C=Nc2ccc(I)cc2)o1 | -9.1%
Cc1ccc(S(=O)(=O)/N=C2\C=CC(=O)C(Br)=C2)cc1 | -3.5%

SMILES | displacement
O=C(Nc1ccccc1)Nc1ncccn1 | 13%
CCNC(=S)NNC(=O)CCn1c2ccccc2c2ccccc21 | -12.5%
COC(=O)Nc1ccc(S(=O)(=O)N2CCN(c3ccccc3OC)CC2)cc1 | -11.1%
CCC12CN3CC(CC)(CN(C1)C3c1ccc(Br)cc1)C2=O (stereo unspecified) | 10.1%
Cc1ccc(NC2=C(Cl)C(=O)N(c3ccccc3Cl)C2=O)c(C)c1 | 1.9%
CCOc1ccc(N2C(=O)CC(N(Cc3ccco3)C(=O)c3ccc(Cl)cc3)C2=O)cc1 (stereo unspecified) | -8%
COc1ccc(C2CC(=O)C3=C(C2)Nc2ccccc2NC3c2ccc(C)c([N+](=O)[O-])c2)cc1OC (stereo unspecified) | -5.1%
Cc1nc2ccc(Cl)cn2c1C(=O)N/N=C\c1ccc(C(=O)O)cc1 | -3.1%
O=C(CN1C(=O)/C(=C\c2ccccc2F)SC1=S)Nc1nc2ccccc2s1 | 7.3%
CN(C)c1ccc(C(O)C(C)(O)c2nc3ccccc3n2C)cc1 (stereo unspecified) | 6.1%
O=C1CN(C(=O)CNC(=O)c2ccccc2)CC(=O)N1 | -3%
CCCCS(=O)CC(O)COCC (stereo unspecified) | -14%
COc1cccc(OCCCCOc2ccccc2OC)c1 | 8.4%
COc1ccc(NC(=O)c2cc3cccc(OC)c3oc2=O)c(OC)c1 | 1.8%
Cc1cc(C)cc(OCC(=O)N2CCN(c3ccc([N+](=O)[O-])cc3)CC2)c1 | -3.5%
CC(C)(C)c1cc(C(C#N)C#N)c(C(C)(C)C)c(O)c1O | 33.5%
COc1ccc(NC(=O)/C=C/c2ccc(C)o2)cc1 | 14.7%
CC1=C(C(=O)OCC2CCCO2)C(c2ccccc2)NC(=O)N1 (stereo unspecified) | 2.5%
Cc1cc(NC(=O)CSc2ccccn2)no1 | 13.8%
Clc1ccc(C=NN2CCN(Cc3ccccc3)CC2)cc1Cl | -6.7%
Nc1ccc(-c2nc3ccc(-c4nc5ccccc5o4)cc3[nH]2)cc1 | 0.8%
C=C(C)CNC(=S)Nc1sc2c(c1C(=O)OCC)CCCC2 | 1.6%
O=C(COc1ccc(Cl)cc1Cl)Nc1ccc(NC(=O)c2ccco2)cc1 | -2.4%

SMILES | displacement
COc1cc(C2NC(=O)c3c(sc4c3CCN(C)C4)N2)cc(OC)c1OC (stereo unspecified) | 3.2%
O=C(Cc1ccc([N+](=O)[O-])cc1)NCc1ccccn1 | 14.1%
CC1=NN(C(=O)C(C)C)C(C)(NNC(=O)C(C)C)C1 (stereo unspecified) | 2.9%
O=C(N/N=C/c1ccncc1)c1[nH]c2ccc([N+](=O)[O-])cc2c1-c1ccccc1 | -4.2%
CCC(=O)N1N=C(c2cccc([N+](=O)[O-])c2)CC1c1ccc(OC)cc1 (stereo unspecified) | 4.5%
O=C(c1ccc(I)cc1)N1CCN(c2ccc([N+](=O)[O-])cc2)CC1 | 8.9%
Cc1cc(Cl)ccc1OC(C)C(=O)NCCc1ccccc1 (stereo unspecified) | -3%
NC(=O)CSc1nc2ccccc2n1Cc1ccccc1 | -0.9%
Cc1ccc(-c2cc(-c3ccccc3)nc(N/N=C/c3ccc(O)cc3O)n2)cc1 | -9.3%
Cc1ccc(N2CCOCC2)c2c1C(=O)c1ccccc1C2=O | -2.3%
Cc1ccc(N2NC(=O)/C(=C/c3ccc(O)c([N+](=O)[O-])c3)C2=O)cc1 | 0.3%
Cn1cccc1CN1CCN(Cc2ccccc2)CC1 | 26.1%
O=C(NCCOc1ccccc1Cl)c1ccc2c3c(cccc13)CC2 | -9.9%
CC(Sc1nc2ccc(Br)cc2c(=O)n1-c1ccccc1)c1ccccc1 (stereo unspecified) | 5.1%
Cc1oc2c(CN(CC(C)C)CC(C)C)c(O)ccc2c(=O)c1-c1nc2ccccc2s1 | 12.7%
COc1ccc(-n2nc3cc(C)c(NC(=O)C(c4ccccc4)c4ccccc4)cc3n2)cc1 | 0.6%
O=C1CC(c2cc([N+](=O)[O-])ccc2Cl)c2cc(Br)c3ccccc3c2N1 (stereo unspecified) | -9.3%
CC(C)(C)NC(=O)C(=O)NN=C1CCCC1 | 0.3%
C=CCn1c(SCC(=O)Nc2ccccc2OC)nc(O)c(Cc2ccccc2)c1=O | -4.3%
O=C(/C=C/c1ccccc1)NC(=S)Nc1ccc(N2CCOCC2)cc1 | 11.2%
CCN(CC)c1ccc(NC(=O)c2ccc(I)cc2)cc1 | 1.7%
COc1ccccc1NC(=O)CC1S/C(=N\N=C(/C)c2ccc(Cl)cc2)NC1=O (stereo unspecified) | -0.6%
CCOc1ccc2nc(SCC(=O)c3ccccc3)sc2c1 | -11.3%

SMILES | displacement
COc1c(Br)cc(/C=C2\SC(=S)NC2=O)cc1Br | -26.2%
Cc1ccccc1C(=O)Nc1cccc(-c2nnc(-c3ccccc3)o2)c1 | 3.2%
Cc1ccc(CN2C(=O)C(C)(C)Nc3ccccc32)c(C)c1 | -1%
Cc1cc(N2CCN(c3ccccc3)CC2)nc2ccccc12 | -0.9%
Cc1ccc2oc(-c3cc(NC(=O)c4cccs4)ccc3O)nc2c1 | 5.7%
CC1CSc2nc3sc4c(c3c(=O)n21)CCCC4 (stereo unspecified) | -12.9%
O=C(NCCCO)C1CC(=O)N(c2ccccc2)C1 (stereo unspecified) | 9.7%
O=C(Nc1ccc(Cl)c2c1C(=O)c1ccccc1C2=O)c1ccc([N+](=O)[O-])cc1Cl | -7.9%
O=C(O)c1c(F)c(F)c(N2CCOCC2)c(F)c1F | -5.1%
O=[N+]([O-])c1ccc(-c2nnc(-c3ccco3)o2)c(Cl)c1 | 14%
N#C/C(=C(/O)c1ccco1)c1nc2ccccc2[nH]1 | -7.2%
O=C1c2ccc(-c3nc4ccccc4o3)cc2C(=O)N1c1cccc(-c2nc3ccccc3o2)c1 | -1.2%
O=C(CCN1C(=O)c2ccccc2C1=O)Nc1ccccc1C(=O)N1CCOCC1 | 10%
CC1CCN(C(=O)c2ccccc2[N+](=O)[O-])CC1 | 13.9%
Cc1ccc(S(=O)(=O)NN2C(=O)/C(=C/c3ccc(F)cc3)SC2=S)cc1 | 2%
Cc1c(C(=O)Nc2ccccc2C(N)=O)cccc1[N+](=O)[O-] | 17.8%
NC(=O)c1cccc(NC(=O)c2ccccc2C(=O)O)c1 | -13.5%
Cc1cccc2c1[nH]c1nc(SCC(C)C)nnc12 | 10.4%
Cc1ccc(OCCOCCOc2ccccc2/C=C2/SC(=S)NC2=O)cc1 | 9.8%
CCN(CC)C(=O)CSc1nc(C)cc(=O)[nH]1 | -4.5%
CC(C)C(=O)N1c2ccccc2C(N(C(=O)c2ccc([N+](=O)[O-])cc2)c2ccccc2)CC1C (stereo unspecified) | 16.1%
NC(=O)c1c(/N=C/c2cc(Cl)cc(Cl)c2O)sc2c1CCCC2 | -5.9%
O=C(COc1ccccc1)N1CCN(C(=O)Cc2ccccc2)CC1 | -1.8%

SMILES | displacement
O=[N+]([O-])c1ccccc1/C=N/Nc1nc(-c2ccccc2)cc(-c2ccccc2O)n1 | -6.1%
CCOC(=O)C1=C(C)N=C2SC(C)C(=O)N2C1c1ccc(OC)cc1 (stereo unspecified) | -10.9%
CC1CCN(C(=O)c2ccccc2N(Cc2ccccc2)S(=O)(=O)c2ccccc2)CC1 | -1%
Cc1ccc(S(=O)(=O)NC(=O)NC(C)c2ccccc2)cc1 (stereo unspecified) | 7.4%
Cc1ccc(OCC(=O)Nc2nccs2)c(C)c1 | -3.9%
O=C1C2C(C(=O)N1c1cc(C(F)(F)F)ccc1Cl)C1C=CC2C12CC2 (stereo unspecified) | 15.9%
Cc1cc(C(=O)Nc2ccc3nn(-c4ccccc4)nc3c2)ccc1[N+](=O)[O-] | 0.7%
Cc1cc(OCCCCCCN2CCCC2)cc(C)c1Cl | 9.3%
Cc1ccc(-c2nc3ccccc3o2)cc1NC(=O)c1ccco1 | 3.1%
COc1ccccc1/C=C/C=NN1CCN(Cc2ccccc2Cl)CC1 | 0.1%
COc1ccc(OC)c(N(CC(=O)Nc2cccc(C(F)(F)F)c2)S(C)(=O)=O)c1 | 13.1%
O=C(CCCOc1ccc(Cl)cc1Cl)Nc1ccc([N+](=O)[O-])cc1 | 13.7%
O=C1/C(=C/c2cn(Cc3ccccc3Cl)c3ccccc23)Sc2ccccc21 | 49%
Cc1ccccc1C(=O)Nc1cccc(NC(=O)c2ccc(-c3ccc(Br)cc3)o2)c1 | 21.4%
CC(C)(C)NC(=O)CN(c1ccc(Br)cc1)S(C)(=O)=O | 10.6%
O=c1[nH]cnc2scc(-c3ccc(-c4ccccc4)cc3)c12 | 14.2%
Cc1ccc(C)c(NC(=O)COc2cccc(C)c2C)c1 | -2.5%
COc1cc(/C=C2\SC(=S)N(c3cccc(C(F)(F)F)c3)C2=O)cc(OC)c1OC | -7%
Cc1ccc(-c2ccc(OCC(=O)N3CCCc4ccccc43)cc2)cc1 | 59.3%
